In patent CN113214400A (FUKANG SHANGHAI HEALTH TECH CO LTD, dated 2021):

Molecular target: T1, 人VEGF抗原 (WBP325-hPro1, Sino Biological, 11066-HNAB) (human, UniProt P15692-4 27-191)
T1 sequence (looked up): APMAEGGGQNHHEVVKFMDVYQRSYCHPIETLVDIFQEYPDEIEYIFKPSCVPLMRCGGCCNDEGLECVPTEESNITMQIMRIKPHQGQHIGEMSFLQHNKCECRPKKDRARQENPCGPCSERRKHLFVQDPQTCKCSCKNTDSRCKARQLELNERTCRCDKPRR
Test: cell-based or functional assay

B1: W3256-U15T2.G6-1.uIgG1 (bispecific antibody)
heavy: EVQLVESGGGLVQPGGSLRLSCAASGYTFTNYGMNWVRQAPGKGLEWVGWINTYTGEPTYAADFKRRFTFSLDTSKSTAYLQMNSLRAEDTAVYYCAKYPHYYGSSHWYFDVWGQGTLVTVSSASTKGPSVFPLAPSSKSTSGGTAALGCLVKDYFPEPVTVSWNSGALTSGVHTFPAVLQSSGLYSLSSVVTVPSSSLGTQTYICNVNHKPSNTKVDKRV[human IgG1 Fc cut from this listing]
light: EVQLVESGGGLVQPGGSLRLSCAASGHFSNLAVNWFRQAPGKERELVAGILWSGGSTFYADSVKGRFTISRGNAENMLYLQMNSLRAEDTAVYYCNTGTNWGQGTLVTVSSGGGGSGGGGSDIQMTQSPSSLSASVGDRVTITCSASQDISNYLNWYQQKPGKAPKVLIYFTSSLHSGVPSRFSGSGSGTDFTLTISSLQPEDFATYYCQQYSTVPWTFGQGTKVEIKRTVAAPSVFIFPPSDEQLKSGTASVVCLLNNFYPREAKVQWKVDNALQSGNSQESVTEQDSKDSTYSLSSTLTLSKADYEKHKVYACEVTHQGLSSPVTKSFNRGEC
VEGF诱导的HUVEC增殖抑制 IC50: ~12 nM
